This passage reports cytotoxicity call and growth inhibition call results from the antibiotic and cytotoxicity screens of Wong et al. (2023).

Some of the results follow.

The test system of one experiment is HSkMC. Kind of experiment: cytotoxicity call (relative viability < 0.9). The conditions noted are these: 10 µM.
The next experiment relates to S. aureus RN4220. Kind of experiment: growth inhibition call (relative growth <= 0.2). The conditions noted are these: 50 µM.

Take `CN1C[C@H]2CN(Cc3nccn3C)C[C@H]2C1=O`: the cytotoxicity call in the experiment with HSkMC is “inactive”. Further, the growth inhibition call in the experiment with S. aureus RN4220 was “inactive”.

On to `NCC(=O)c1ccccc1`, for which the cytotoxicity call with HSkMC was “inactive”. In the experiment with S. aureus RN4220, the growth inhibition call was “inactive”.

As for `[N-]=[N+]=Nc1ccccc1C[C@]1(C(N)=O)N=C(c2ccc(OCCCO)cc2)O[C@H]1c1ccccc1N=[N+]=[N-]`, the cytotoxicity call with HSkMC was “inactive”. Moreover, the growth inhibition call in the experiment with S. aureus RN4220 is “inactive”.

`CC12CCC3C(CCC45OC4C(O)=C(C#N)CC35C)C1CCC2O` (stereo not drawn): the cytotoxicity call in the experiment on HSkMC is “inactive”. The growth inhibition call in the experiment on S. aureus RN4220 is “inactive”.

With `CNC1C(O)C(OC2C(N)CC(N)C(OC3OC(C(C)O)C(O)C(O)C3N)C2O)OCC1(C)O` (stereo not drawn), the cytotoxicity call with HSkMC is “inactive”. The growth inhibition call in the experiment with S. aureus RN4220 was “active”.

Consider `N[C@@H](C(=O)O)c1nn[nH]n1`, for which, in the experiment with HSkMC, the cytotoxicity call is “inactive”. Besides, the growth inhibition call in the experiment with S. aureus RN4220 was “inactive”.

`NCCc1nnc2n1CCCCC2`: the cytotoxicity call in the experiment on HSkMC was “inactive”. Moreover, the growth inhibition call with S. aureus RN4220 was “inactive”.

As to `Nc1ccc([As](=O)(O)O)cc1`, the cytotoxicity call in the experiment with HSkMC was “inactive”. Moreover, in the experiment with S. aureus RN4220, the growth inhibition call is “inactive”.

On to `Oc1ccccc1-c1ccccc1O`, for which, in the experiment with HSkMC, the cytotoxicity call is “inactive”. Also, the growth inhibition call in the experiment on S. aureus RN4220 is “inactive”.

`Cl.NCCc1cc(O)c(O)cc1O`: the cytotoxicity call in the experiment with HSkMC was “inactive”. The growth inhibition call in the experiment with S. aureus RN4220 was “inactive”.

In the case of `COc1ccc(OC(=O)N(C)C[C@H]2OCc3ccccc3-c3c(n(C)c4ccccc34)C(=O)N([C@H](C)CO)C[C@H]2C)cc1`, the cytotoxicity call in the experiment on HSkMC is “inactive”. Moreover, in the experiment with S. aureus RN4220, the growth inhibition call is “inactive”.

Consider `CN1CCc2cc3c(cc2C1O)OCO3.Cl` (stereo not drawn), for which the cytotoxicity call in the experiment with HSkMC was “inactive”. For the same compound, in the experiment on S. aureus RN4220, the growth inhibition call is “inactive”.

As for `O=C1NC(=S)NC(=O)C1CN1CCOCC1`, the cytotoxicity call in the experiment with HSkMC is “inactive”. Further, the growth inhibition call with S. aureus RN4220 is “inactive”.

For the compound `O=C(c1ccco1)N1[C@@H]2CC[C@H]1CNC2`, the cytotoxicity call in the experiment on HSkMC is “inactive”. Besides, in the experiment on S. aureus RN4220, the growth inhibition call is “inactive”.

As to `C[N+](C)(C)CCCl`, in the experiment on HSkMC, the cytotoxicity call is “inactive”. The growth inhibition call in the experiment on S. aureus RN4220 is “inactive”.

`C[C@@H]1CN([C@@H](C)CO)C(=O)CCCn2nncc2CO[C@@H]1CN(C)C(=O)Oc1cccc2ccccc12`: in the experiment on HSkMC, the cytotoxicity call was “inactive”. The growth inhibition call with S. aureus RN4220 is “inactive”.

Turning to `CCN(CC)C1CCCCC1`, in the experiment on HSkMC, the cytotoxicity call is “inactive”. Moreover, the growth inhibition call in the experiment on S. aureus RN4220 was “inactive”.

Regarding `Cl.O=C1CCC2(O)C3Cc4ccc(O)c5c4C2(CCN3CC2CC2)C1O5` (stereo not drawn), the cytotoxicity call with HSkMC was “inactive”. In addition, the growth inhibition call in the experiment on S. aureus RN4220 was “inactive”.

In the case of `COc1ccc2c(c1O)-c1c(OC)c(OC)cc3c1C(C2)N(C)CC3` (stereo not drawn), the cytotoxicity call in the experiment on HSkMC is “inactive”. The growth inhibition call with S. aureus RN4220 is “inactive”.

Regarding `C[C@H](N)Cn1ccc2cc(F)c(Cl)cc21`, the cytotoxicity call in the experiment on HSkMC is “inactive”. The growth inhibition call in the experiment with S. aureus RN4220 was “inactive”.

In the case of `c1cnc2[nH]cc(CN3CCNCC3)c2c1`, the cytotoxicity call in the experiment with HSkMC is “inactive”. Further, the growth inhibition call in the experiment with S. aureus RN4220 is “inactive”.

Take `O=C([C@H]1CCCO1)N1CCCN2CCC[C@H]2C1`: the cytotoxicity call with HSkMC is “inactive”. Moreover, in the experiment with S. aureus RN4220, the growth inhibition call was “inactive”.

On to `NCCc1c[nH]c2ccc(C(N)=O)cc12`, for which, in the experiment with HSkMC, the cytotoxicity call was “inactive”. The growth inhibition call in the experiment with S. aureus RN4220 is “inactive”.

Turning to `CC1(C)NN1CCCN1NC1(C)C` (stereo not drawn), the cytotoxicity call in the experiment on HSkMC is “inactive”. Further, the growth inhibition call in the experiment with S. aureus RN4220 was “inactive”.

In the case of `C[C@@H](N)Cc1cccc(O)c1`, the cytotoxicity call in the experiment on HSkMC is “inactive”. In addition, the growth inhibition call in the experiment on S. aureus RN4220 is “inactive”.

Consider `CC(C)C[C@@H]1NC[C@@H]2CCCN2C1=O`, for which the cytotoxicity call in the experiment with HSkMC is “inactive”. For the same compound, in the experiment with S. aureus RN4220, the growth inhibition call was “inactive”.

Regarding `O=[N+]([O-])OC1COC2C(O[N+](=O)[O-])COC12` (stereo not drawn), the cytotoxicity call in the experiment on HSkMC is “inactive”. Also, the growth inhibition call in the experiment on S. aureus RN4220 is “inactive”.

`OCC(CO)N1CCC2(CCNCC2)CC1`: in the experiment on HSkMC, the cytotoxicity call was “inactive”. Besides, the growth inhibition call in the experiment with S. aureus RN4220 is “inactive”.

In the case of `Cc1cccnc1N1CCNCC1`, the cytotoxicity call in the experiment with HSkMC is “inactive”. Also, the growth inhibition call with S. aureus RN4220 was “inactive”.

For the compound `C#CCN(C)C(C)Cc1ccccc1.Cl` (stereo not drawn), the cytotoxicity call in the experiment with HSkMC is “inactive”. The growth inhibition call in the experiment with S. aureus RN4220 was “inactive”.

For `O=c1cccc2n1C[C@@H]1CNC[C@H]2C1`, in the experiment on HSkMC, the cytotoxicity call was “inactive”. Besides, in the experiment on S. aureus RN4220, the growth inhibition call was “inactive”.

In the case of `COc1ccc(OC(=O)N(C)C[C@@H]2OCc3ccccc3-c3c(n(C)c4ccccc34)C(=O)N([C@@H](C)CO)C[C@@H]2C)cc1`, the cytotoxicity call with HSkMC was “inactive”. Also, in the experiment on S. aureus RN4220, the growth inhibition call is “inactive”.

On to `N=C(N)NO`, for which, in the experiment on HSkMC, the cytotoxicity call is “inactive”. Further, in the experiment with S. aureus RN4220, the growth inhibition call was “inactive”.

Turning to `CCN(CC)C(=O)C1=NO[C@]2(CCNC2)C1`, in the experiment with HSkMC, the cytotoxicity call is “inactive”. Further, the growth inhibition call in the experiment with S. aureus RN4220 was “inactive”.

Regarding `C[C@H]1O[C@H](n2cnc3c(N)ncnc32)C[C@H]1O`, the cytotoxicity call in the experiment on HSkMC was “inactive”. The growth inhibition call in the experiment with S. aureus RN4220 was “inactive”.

On to `O=C1NC(=S)NC(=O)C1c1ccccc1`, for which, in the experiment on HSkMC, the cytotoxicity call was “inactive”. Also, the growth inhibition call in the experiment with S. aureus RN4220 is “inactive”.

`CCn1nnnc1N`: the cytotoxicity call in the experiment with HSkMC is “inactive”. In addition, the growth inhibition call in the experiment with S. aureus RN4220 is “inactive”.

For `COC(=O)[C@H]1CNCCN1c1ccccc1`, the cytotoxicity call in the experiment with HSkMC is “inactive”. In the experiment with S. aureus RN4220, the growth inhibition call was “inactive”.

Turning to `CN1CCN(c2nc(=O)c3c([nH]2)CCCC3)CC1`, the cytotoxicity call in the experiment on HSkMC was “inactive”. For the same compound, in the experiment with S. aureus RN4220, the growth inhibition call is “inactive”.

Take `O[C@H]1C2CN3CCN(C2)CC1(c1ccccc1)C3`: in the experiment with HSkMC, the cytotoxicity call is “inactive”. Also, the growth inhibition call in the experiment on S. aureus RN4220 is “inactive”.

On to `O=C(O)[C@H]1N[C@H]2CC[C@@H]1C2`, for which, in the experiment with HSkMC, the cytotoxicity call is “inactive”. The growth inhibition call with S. aureus RN4220 was “inactive”.

Consider `C[C@@H]1CN([C@H](C)CO)C(=O)CCCn2nncc2CO[C@@H]1CN(C)C(=O)Oc1ccc2ccccc2c1`, for which, in the experiment with HSkMC, the cytotoxicity call is “inactive”. Moreover, the growth inhibition call with S. aureus RN4220 is “inactive”.

As to `CCn1cc(C(=O)[O-])c(=O)c2cc3c(cc21)OCO3.[K+]`, the cytotoxicity call with HSkMC is “inactive”. Besides, the growth inhibition call in the experiment with S. aureus RN4220 was “inactive”.

As to `C[C@@H](O)CN1C[C@H]2C[C@@H](C1)c1cccc(=O)n1C2`, the cytotoxicity call in the experiment on HSkMC was “inactive”. The growth inhibition call with S. aureus RN4220 is “inactive”.

Turning to `NCCc1cccs1`, in the experiment on HSkMC, the cytotoxicity call is “inactive”. Further, the growth inhibition call in the experiment with S. aureus RN4220 was “inactive”.

With `O=C(OC1CC2CCC(C1)[N+]21CCCC1)C(O)(c1ccccc1)c1ccccc1.[Cl-]` (stereo not drawn), the cytotoxicity call with HSkMC was “inactive”. In addition, the growth inhibition call in the experiment with S. aureus RN4220 was “inactive”.

As to `CC(C)C12CN3CCN(CC(C3)C1=O)C2`, the cytotoxicity call in the experiment with HSkMC is “inactive”. Further, in the experiment on S. aureus RN4220, the growth inhibition call was “inactive”.

With `N=C(N)N/N=C/c1ccc2c(c1)OCO2`, the cytotoxicity call in the experiment with HSkMC is “inactive”. Moreover, the growth inhibition call in the experiment with S. aureus RN4220 is “inactive”.

Take `CN1C[C@H]2CON[C@@H]2C1`: the cytotoxicity call in the experiment on HSkMC (human skeletal muscle cells) was “inactive”. Besides, in the experiment with S. aureus RN4220, the growth inhibition call is “inactive”.
